{
  "source": "the supplement of paper PMC8728848",
  "experiment_in_all_cases": "glycan array binding signal (z-score within array); higher = stronger binding",
  "details_in_all_cases": "glycan notation: IUPAC condensed, linker removed",
  "key": {"[1]": {"biological_target": "Fuc(a1-2)[Gal(a1-3)]Gal(b1-4)GlcNAc(b1-2)Man(a1-3)[Fuc(a1-2)[Gal(a1-3)]Gal(b1-4)GlcNAc(b1-2)Man(a1-6)]Man(b1-4)GlcNAc(b1-4)GlcNAc", "in_short": "(§1)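 The binding signal is a Z-score computed within each array. Data were drawn from 3228 arrays in the Consortium for Functional Glycomics database, restricted to those with a known protein sequence. Scores were averaged over arrays of the same protein sequence at different concentrations or buffers, and over linkers, and negative values can be taken as non-binding.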"}, "[2]": {"biological_target": "Fuc(a1-2)[Gal(a1-3)]Gal(b1-4)GlcNAc(b1-2)Man(a1-3)[Fuc(a1-2)[Gal(a1-3)]Gal(b1-4)GlcNAc(b1-2)Man(a1-6)]Man(b1-4)GlcNAc(b1-4)[Fuc(a1-6)]GlcNAc", "in_short": "as §1"}, "[3]": {"biological_target": "Fuc(a1-2)[Gal(a1-3)]Gal(b1-4)GlcNAc(b1-3)GalNAc", "in_short": "as §1"}, "[4]": {"biological_target": "Fuc(a1-2)[Gal(a1-3)]Gal(b1-4)GlcNAc(b1-3)[Fuc(a1-2)[Gal(a1-3)]Gal(b1-4)GlcNAc(b1-6)]GalNAc", "in_short": "as §1"}, "[5]": {"biological_target": "Fuc(a1-2)[Gal(a1-3)]Gal(b1-4)GlcNAc(b1-6)GalNAc", "in_short": "as §1"}, "[6]": {"biological_target": "Fuc(a1-2)[Gal(a1-3)]Gal(b1-4)[Fuc(a1-3)]Glc", "in_short": "as §1"}, "[7]": {"biological_target": "Fuc(a1-2)[Gal(a1-3)]Gal(b1-4)[Fuc(a1-3)]GlcNAc", "in_short": "as §1"}, "[8]": {"biological_target": "Fuc(a1-2)[Gal(a1-3)]Gal(b1-4)[Fuc(a1-3)]GlcNAc(b1-3)GalNAc", "in_short": "as §1"}, "[9]": {"biological_target": "Fuc(a1-2)[Gal(a1-4)]Gal(b1-4)GlcNAc", "in_short": "as §1"}, "[10]": {"biological_target": "Fuc(a1-2)[GalNAc(a1-3)]Gal", "in_short": "as §1"}, "[11]": {"biological_target": "Fuc(a1-2)[GalNAc(a1-3)]Gal(b1-3)GalNAc(a1-3)[Fuc(a1-2)]Gal(b1-4)GlcNAc", "in_short": "as §1"}, "[12]": {"biological_target": "Fuc(a1-2)[GalNAc(a1-3)]Gal(b1-3)GalNAc(b1-3)Gal(a1-4)Gal(b1-4)Glc", "in_short": "as §1"}, "[13]": {"biological_target": "Fuc(a1-2)[GalNAc(a1-3)]Gal(b1-3)GlcNAc", "in_short": "as §1"}, "[14]": {"biological_target": "Fuc(a1-2)[GalNAc(a1-3)]Gal(b1-3)GlcNAc(b1-2)Man(a1-3)[Fuc(a1-2)[GalNAc(a1-3)]Gal(b1-3)GlcNAc(b1-2)Man(a1-6)]Man(b1-4)GlcNAc(b1-4)GlcNAc", "in_short": "as §1"}, "[15]": {"biological_target": "Fuc(a1-2)[GalNAc(a1-3)]Gal(b1-3)GlcNAc(b1-2)Man(a1-3)[Fuc(a1-2)[GalNAc(a1-3)]Gal(b1-3)GlcNAc(b1-2)Man(a1-6)]Man(b1-4)GlcNAc(b1-4)[Fuc(a1-6)]GlcNAc", "in_short": "as §1"}, "[16]": {"biological_target": "Fuc(a1-2)[GalNAc(a1-3)]Gal(b1-3)GlcNAc(b1-3)GalNAc", "in_short": "as §1"}, "[17]": {"biological_target": "Fuc(a1-2)[GalNAc(a1-3)]Gal(b1-3)GlcNAc(b1-6)GalNAc", "in_short": "as §1"}, "[18]": {"biological_target": "Fuc(a1-2)[GalNAc(a1-3)]Gal(b1-4)Glc", "in_short": "as §1"}, "[19]": {"biological_target": "Fuc(a1-2)[GalNAc(a1-3)]Gal(b1-4)GlcNAc", "in_short": "as §1"}, "[20]": {"biological_target": "Fuc(a1-2)[GalNAc(a1-3)]Gal(b1-4)GlcNAc(b1-2)Man", "in_short": "as §1"}, "[21]": {"biological_target": "Fuc(a1-2)[GalNAc(a1-3)]Gal(b1-4)GlcNAc(b1-2)Man(a1-3)[Fuc(a1-2)[GalNAc(a1-3)]Gal(b1-4)GlcNAc(b1-2)Man(a1-6)]Man(b1-4)GlcNAc(b1-4)GlcNAc", "in_short": "as §1"}, "[22]": {"biological_target": "Fuc(a1-2)[GalNAc(a1-3)]Gal(b1-4)GlcNAc(b1-2)Man(a1-3)[Fuc(a1-2)[GalNAc(a1-3)]Gal(b1-4)GlcNAc(b1-2)Man(a1-6)]Man(b1-4)GlcNAc(b1-4)[Fuc(a1-6)]GlcNAc", "in_short": "as §1"}},
  "note": "This is one part of the list.",
  "data": [
    {"binder": "InvD YPIII (Yersinia pseudotuberculosis), B1JSC0 (protein) MIKYFSFFKKPEPIVGILPNRQSHHILPTHIRRVAWGTLLLQLFIPLSVSFSPAIAAMKASKADTMVSYSSTEPYVLGSGETVAMVAKKYGITVDELKKINIYRTFSRPFTALTTGDEIDIPRKASPFSVDNNKDNRLSVENTLAGHAVAGATALSNGDVAKSGERMVRSAASNEFNNSAQQWLSQFGTARVQLNINDDFHLDGSAADVLIPLYDNEKSILFTQLGARNKDSRNTVNMGAGVRTFQGNWMYGANTFFDNDLTGKNRRIGVGAEAWTDYLKLSANNYFGITDWHQSRDFIDYNERPANGYDLRAEAYLPSYPQLGGKAMYEKYRGDDVALFGKDNRQKNPHAITAGVNYTPIPLVTIGAEHRAGKGGQNDSNINFQLNYRLGETWQSHIDPSAVAASRTLAGSRYDLVERNNHIVLDYQKQNLVRLSLPDSLAGDPFSQLSVTAQVTATHGLERIDWQSAELMAAGGVLKQTSKNGLEITLPEYQMNRTGGNSYILNAIAYDTQGNASSQASMLITVNAQKINIANSTLVAVPINIEANNSDTSVVTLTLKDDNNIPVTGQDVTFLSPLGTLSAMTDSGNGVYTATLTAGTVSGTTAVSSNINGSALDMTPATVTLNGNSGELSITHSMLVAAPVNIEANGSDTSVVTLTLRDSNNNPVTGQTVTFAGTLGTLGAVTEGSSGVYTATLTAGIMVGTSSITASVNSTALGVTPATVTLNGDSGNLSTTNSTLVAAPVNIEANSSDTSVVTLTLRDNNNNPVTGQTVVFTSTLGTLGNVTEQASGVYTATLTAGTVSGVASLSVSVGGNALGVTPATVTLNGDSGNLSTTNSTLVAAPVNIEANSSDTSVVTLTLRDNNNNPVTGQTVNFAGTLGTLGTVSEGSSGVYTTTLTAGTVAGVASLSVNVGGNALGVTPATVTLNGNSGNLSATNSTLVAAPVNIEANSSDTSVVTLTLRDNNNNPVTGQTVAFTSTLGTLGNVTEQASGVYTATLTAGTVSGVASLSVSVNSNALGVTPATVTLNGDSGNLSTTNSTLVAAPVNIEANSSDTSVVTLTLRDNNNNPVTGQTVAFTSTLGTLGNVTEQASGLYTATLTAGTVSGVASLSVNVGGNALGVTPATVTLNGDSGNLSATNSTLVAAPVNIEANSSDTSVVTLTLRDNNNNPVTGQTVAFTSTLGTLGNVTEQASGLYTATLTAGTVSGVASLSVNVGGTALGVTPATVTLNGDSGNLSTTNSTLVAAPVNIEANSSDTSVVTLTLRDNNNNPVTGQTVAFTSTLGTLGNVTEQASGLYTATLTAGTVSGVASLSVSVNSTALGVTPATVTLNGDSGNLSTTNSTLVAAPVNIEANSSDTSVVTLTLRDNNNNPVTGQTVAFTSTLGTLGNVTEQASGVYTATLTAGTVAGVASLSVNVGGNALGVTPATVTLNGDSGNLSTTNSTLVAAPVNIEANSSDTSVVTLTLRDNNNNPVTGQTVAFTSTLGTLGNVTEQASGVYTATLTAGTVSGVASLSVSVGSSALGVTPATVTLNGDSGNLSTTNSTLVAAPVNIEANNSDTSVVTLTLRDNNNNPVTGQTVAFTSTLGTLGNVTEQASGVYTATLTAGTVSGVASLSVSVNSNALGVTPATVTLNGDSGNLSTTNSTLVAAPVNIEANSSDTSVVTLTLRDNNNNPVTGQTVVFTSTLGTLGNVTEQASGLYTATLTAGTVSGVASLSVSVGGNALGVTGNITLAPGALDAARSILAVNKPSINADDRIGSTITFTAQDAQGNAITGLDIAFMTDLENSQIMTLVDHNDGTYTANINGTQTGIANIAVQSSGATIAGLAATMVTITPGAWNTTQATPVMTVALPITTCQSSSGVYKRYYIGIVTHELYDNYGNEISGILTYNLGAGRYTTVTSQNSSVSGSNGLTRRSNSPVSHFILTSDAYTSQAACYAERIANVNVTITVTAITDDFKTSAVNKVFILGTGSN", "values": [
      {"measurement": "glycan array binding signal (z-score)", "setting": "[1]", "result": 0.059},
      {"measurement": "glycan array binding signal (z-score)", "setting": "[2]", "result": 0.023},
      {"measurement": "glycan array binding signal (z-score)", "setting": "[3]", "result": -0.321},
      {"measurement": "glycan array binding signal (z-score)", "setting": "[4]", "result": 0.296},
      {"measurement": "glycan array binding signal (z-score)", "setting": "[5]", "result": -0.233},
      {"measurement": "glycan array binding signal (z-score)", "setting": "[6]", "result": -0.075},
      {"measurement": "glycan array binding signal (z-score)", "setting": "[7]", "result": -0.005},
      {"measurement": "glycan array binding signal (z-score)", "setting": "[8]", "result": -0.204},
      {"measurement": "glycan array binding signal (z-score)", "setting": "[9]", "result": -0.217},
      {"measurement": "glycan array binding signal (z-score)", "setting": "[10]", "result": -0.043},
      {"measurement": "glycan array binding signal (z-score)", "setting": "[11]", "result": -0.299},
      {"measurement": "glycan array binding signal (z-score)", "setting": "[12]", "result": 0.163},
      {"measurement": "glycan array binding signal (z-score)", "setting": "[13]", "result": -0.31},
      {"measurement": "glycan array binding signal (z-score)", "setting": "[14]", "result": 0.046},
      {"measurement": "glycan array binding signal (z-score)", "setting": "[15]", "result": 0.36},
      {"measurement": "glycan array binding signal (z-score)", "setting": "[16]", "result": -0.105},
      {"measurement": "glycan array binding signal (z-score)", "setting": "[17]", "result": -0.25},
      {"measurement": "glycan array binding signal (z-score)", "setting": "[18]", "result": -0.366},
      {"measurement": "glycan array binding signal (z-score)", "setting": "[19]", "result": -0.159},
      {"measurement": "glycan array binding signal (z-score)", "setting": "[20]", "result": -0.271},
      {"measurement": "glycan array binding signal (z-score)", "setting": "[21]", "result": -0.273},
      {"measurement": "glycan array binding signal (z-score)", "setting": "[22]", "result": 0.113}
    ]}
  ]
}
